# Some of the results follow.
# Tests used:
# Test in all cases: glycan array binding signal (z-score within array); higher = stronger binding
# Settings in all cases: glycan notation: IUPAC condensed, linker removed
# [1] = biological target: Fuc(a1-2)Gal
# How it was run: (§1)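 Negative Z-scores can be read as non-binding. The Z-score is calculated within each array and then averaged across arrays of one protein sequence at different concentrations or buffers and across linkers. Arrays, 3228 in all, were curated from the Consortium for Functional Glycomics database and kept only where the protein sequence was available.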
# [2] = biological target: Fuc(a1-2)Gal(b1-3)GalNAc
# How it was run: as §1
# [3] = biological target: Fuc(a1-2)Gal(b1-3)GalNAc(a1-3)[Fuc(a1-2)]Gal(b1-4)Glc
# How it was run: as §1
# [4] = biological target: Fuc(a1-2)Gal(b1-3)GalNAc(a1-3)[Fuc(a1-2)]Gal(b1-4)GlcNAc
# How it was run: as §1
# [5] = biological target: Fuc(a1-2)Gal(b1-3)GalNAc(b1-3)Gal
# How it was run: as §1
# [6] = biological target: Fuc(a1-2)Gal(b1-3)GalNAc(b1-3)Gal(a1-4)Gal(b1-4)Glc
# How it was run: as §1
# [7] = biological target: Fuc(a1-2)Gal(b1-3)GalNAc(b1-4)[Neu5Ac(a2-3)]Gal(b1-4)Glc
# How it was run: as §1
# [8] = biological target: Fuc(a1-2)Gal(b1-3)GlcNAc
# How it was run: as §1
# [9] = biological target: Fuc(a1-2)Gal(b1-3)GlcNAc(b1-2)Man(a1-3)[Fuc(a1-2)Gal(b1-3)GlcNAc(b1-2)Man(a1-6)]Man(b1-4)GlcNAc(b1-4)GlcNAc
# How it was run: as §1
# [10] = biological target: Fuc(a1-2)Gal(b1-3)GlcNAc(b1-2)Man(a1-3)[Fuc(a1-2)Gal(b1-3)GlcNAc(b1-2)Man(a1-6)]Man(b1-4)GlcNAc(b1-4)[Fuc(a1-6)]GlcNAc
# How it was run: as §1
# [11] = biological target: Fuc(a1-2)Gal(b1-3)GlcNAc(b1-3)Gal(b1-4)Glc
# How it was run: as §1
# [12] = biological target: Fuc(a1-2)Gal(b1-3)GlcNAc(b1-3)GalNAc
# How it was run: as §1
# [13] = biological target: Fuc(a1-2)Gal(b1-3)GlcNAc(b1-3)[Fuc(a1-2)Gal(b1-3)GlcNAc(b1-6)]GalNAc
# How it was run: as §1
# [14] = biological target: Fuc(a1-2)Gal(b1-3)GlcNAc(b1-3)[Gal(b1-4)GlcNAc(b1-6)]Gal(b1-4)Glc
# How it was run: as §1
# [15] = biological target: Fuc(a1-2)Gal(b1-3)GlcNAc(b1-3)[Neu5Ac(a2-6)Gal(b1-4)GlcNAc(b1-6)]Gal(b1-4)Glc
# How it was run: as §1
# [16] = biological target: Fuc(a1-2)Gal(b1-3)GlcNAc6S
# How it was run: as §1
# [17] = biological target: Fuc(a1-2)Gal(b1-3)[Fuc(a1-4)]GlcNAc
# How it was run: as §1
# [18] = biological target: Fuc(a1-2)Gal(b1-3)[Fuc(a1-4)]GlcNAc(b1-2)Man(a1-3)[Fuc(a1-2)Gal(b1-3)[Fuc(a1-4)]GlcNAc(b1-2)Man(a1-3)]Man(b1-4)GlcNAc(b1-4)GlcNAc
# How it was run: as §1
# [19] = biological target: Fuc(a1-2)Gal(b1-3)[Fuc(a1-4)]GlcNAc(b1-2)Man(a1-3)[Fuc(a1-2)Gal(b1-3)[Fuc(a1-4)]GlcNAc(b1-2)Man(a1-6)]Man(b1-4)GlcNAc(b1-4)[Fuc(a1-6)]GlcNAc(b1-4)[Fuc(a1-6)]GlcNAc
# How it was run: as §1
# [20] = biological target: Fuc(a1-2)Gal(b1-3)[Fuc(a1-4)]GlcNAc(b1-3)[Fuc(a1-3)[Gal(b1-4)]GlcNAc(b1-6)]Gal(b1-4)Glc
# How it was run: as §1
# [21] = biological target: Fuc(a1-2)Gal(b1-3)[Fuc(a1-4)]GlcNAc(b1-3)[Gal(b1-4)GlcNAc(b1-6)]Gal(b1-4)Glc
# How it was run: as §1
# [22] = biological target: Fuc(a1-2)Gal(b1-4)Fuc(a1-3)]GlcNAc(b1-2)Man(a1-3)[Fuc(a1-2)Gal(b1-4)[Fuc(a1-3)]GlcNAc(b1-2)Man(a1-6)]Man(b1-4)GlcNAc(b1-4)GlcNAc
# How it was run: as §1
# [23] = biological target: Fuc(a1-2)Gal(b1-4)Glc
# How it was run: as §1
# [24] = biological target: Fuc(a1-2)Gal(b1-4)Glc6S
# How it was run: as §1
# [25] = biological target: Fuc(a1-2)Gal(b1-4)GlcNAc
# How it was run: as §1
# [26] = biological target: Fuc(a1-2)Gal(b1-4)GlcNAc(b1-2)Man
# How it was run: as §1
# [27] = biological target: Fuc(a1-2)Gal(b1-4)GlcNAc(b1-2)Man(a1-3)[Fuc(a1-2)Gal(b1-4)GlcNAc(b1-2)Man(a1-6)]Man(b1-4)GlcNAc(b1-4)GlcNAc
# How it was run: as §1
# [28] = biological target: Fuc(a1-2)Gal(b1-4)GlcNAc(b1-2)Man(a1-3)[Fuc(a1-2)Gal(b1-4)GlcNAc(b1-2)Man(a1-6)]Man(b1-4)GlcNAc(b1-4)[Fuc(a1-6)]GlcNAc
# How it was run: as §1
# [29] = biological target: Fuc(a1-2)Gal(b1-4)GlcNAc(b1-2)[Fuc(a1-2)Gal(b1-4)GlcNAc(b1-4)]Man(a1-3)[Fuc(a1-2)Gal(b1-4)GlcNAc(b1-2)Man(a1-6)]Man(b1-4)GlcNAc(b1-4)GlcNAc
# How it was run: as §1
# [30] = biological target: Fuc(a1-2)Gal(b1-4)GlcNAc(b1-3)Gal(b1-4)GlcNAc
# How it was run: as §1
binder,measurement,setting,value
"LCA (Lens culinaris), P02870 (protein) MASLQTQMISFYLIFLSILLTTIFFFKVNSTETTSFSITKFSPDQKNLIFQGDGYTTKGKLTLTKAVKSTVGRALYSTPIHIWDRDTGNVANFVTSFTFVIDAPSSYNVADEFTFFIAPVDTKPQTGGGYLGVFNSKEYDKTSQTVAVEFDTFYNAAWDPSNKERHIGIDVNSIKSVNTKSWNLQNGERANVVIAFNAATNVLTVTLTYPNSLEEENVTSYTLNEVVPLKDVVPEWVRIGFSATTGAEFAAHEVHSWSFHSELGGTSSSKQAADA",glycan array binding signal (z-score),[1],-0.192
same,glycan array binding signal (z-score),[2],-0.234
same,glycan array binding signal (z-score),[3],-0.201
same,glycan array binding signal (z-score),[4],-0.23
same,glycan array binding signal (z-score),[5],-0.218
same,glycan array binding signal (z-score),[6],-0.226
same,glycan array binding signal (z-score),[7],-0.216
same,glycan array binding signal (z-score),[8],-0.225
same,glycan array binding signal (z-score),[9],-0.219
same,glycan array binding signal (z-score),[10],0.047
same,glycan array binding signal (z-score),[11],-0.224
same,glycan array binding signal (z-score),[12],-0.2
same,glycan array binding signal (z-score),[13],-0.222
same,glycan array binding signal (z-score),[14],-0.169
same,glycan array binding signal (z-score),[15],-0.212
same,glycan array binding signal (z-score),[16],-0.231
same,glycan array binding signal (z-score),[17],-0.225
same,glycan array binding signal (z-score),[18],-0.174
same,glycan array binding signal (z-score),[19],0.331
same,glycan array binding signal (z-score),[20],-0.23
same,glycan array binding signal (z-score),[21],-0.214
same,glycan array binding signal (z-score),[22],-0.076
same,glycan array binding signal (z-score),[23],-0.205
same,glycan array binding signal (z-score),[24],-0.197
same,glycan array binding signal (z-score),[25],-0.217
same,glycan array binding signal (z-score),[26],-0.177
same,glycan array binding signal (z-score),[27],-0.225
same,glycan array binding signal (z-score),[28],0.737
same,glycan array binding signal (z-score),[29],-0.231
same,glycan array binding signal (z-score),[30],-0.239

# From the supplement of paper PMC8728848
